Source: the supplement of paper PMC10115384
Human monoclonal antibodies (heavy:light variable regions, translated from the printed DNA). IC50 against SARS-CoV-2 spike pseudoviruses, on VSV particles in 293T-ACE2 cells (24 h) or MLV particles in HeLa-ACE2 cells (72 h); lower = stronger; >1.0 µg/ml as printed. No active / inactive call per row; the paper counts an IC50 of 0.4 µg/ml or less on any variant as neutralizing. Only 98 of the paper's 459 antibodies have neutralization values; the two systems are not on one scale.

B1: ADI-67630 (protein)
chain 1: QVQLVQSGAEVRKPGASVKVSCKVSEYTLIELSVHWVRQAPGKGLEWMGGFDPEDGKTIYAQKFQGRVTMTEDTSTDTAYMELSSLRSEDTAVYYCATVPPPIVEIPVPQRNWFAPWGQGTLVTVSS
chain 2: DIQMTQSPSSLPASVGDRVTITCRASQSISSYLNWYQQKSGKAPKLLIYSASTLQSSVPSRFSGSGSGTDFSLTISSLHPEDFATYYCQQSYTTPYTFGQGTKVEIK
B2: ADI-67638 (protein)
chain 1: EVQLVQSGAEVKKPGESLKISCKGSGYRFSSYWIAWVRQTPGKGLEWMGSIYPGDSDTKFSPSFQGQVTISVDKSISTAYVQWNSLKASDTAMYYCARHFADCNQGICHSDYYSYMDVWGKGTTVTVSS
chain 2: DIVMTQSPDSLAVSLGERATINCKSSRTVLHISNNKNYLAWYQQKPGQPPKLLIYWASTRESGVPDRFSGSGSGTDFTLTISSLQAEDVAVYYCQQYYSTVTFGQGTKLEIK
B3: ADI-67664 (protein)
chain 1: QVQLVESGGGVVQPGRSLRLSCAASGFTFNRYGIHWVRQAPGKGLEWVAFISHDGSKNWYADSVKGRFTISRDNSKNTQYLQMNSLRGEDTAVYYCAKSLLGGYYARLYDYYGMDVWGQGTTVTVSS
chain 2: QSALTQPPSASGSPGQSVTISCTGTSSDVGGYNYVSWFQQHPGRAPKLLIYEVNKRPSGVPDRFSGSKSGNTASLTVSGLQAEDEADYYCSSYAGSNLWVFGGGTKLTVL
B4: ADI-67665 (protein)
chain 1: QVQLQESGPRLVKPSETLSLICTVSGGSVSGYYWSWFRQPPGKGLEWIGYIYGTGPTKFNPSLKSRFSMSVDTSKNQFSLKLISVSAADTAVYYCARGFETWGQGTTVTVSS
chain 2: EIVLTQSPGTLSLSPGDRATLSCRASQSFSSNYLAWFQQKPGQAPRLLIYAASSRAIGIPDRFSGSGSGTDFTLTISRLEPEDFAIYYCLQSGGSWTFGQGTKVEIK
B5: ADI-67671 (protein)
chain 1: QVQLQESGPGLVKSSQTLSLTCSVSGGSLNSGGYYWTWIRQHPGKGLEWIGYISYTGSINYNPSLRSRVSISVDTSKNQFSLRLSSVTVADTAVYYCARDRIADFQYYGMDVWGQGTTVTVSS
chain 2: DIQMTQSPSTLSASVGDRVTITCRASQSISNLLTWYQQKPGKAPKLLIYKASTLESGVPSRFSGSASGTEFTLTISSLQPDDFATYYCQHQRTYGQGTKLEIK

Target: SARS-CoV-2 index (Wuhan-Hu-1) spike pseudovirus
Experiment: pseudovirus neutralization IC50; higher = weaker neutralization
Conditions: system: VSV particle, 293T-ACE2 cells
Experimental: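 Single-round reporter pseudovirus mixed with dilutions of yeast-made human IgG and put on ACE2-bearing cells; IC50 from the dose curve.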

Binder	pseudovirus neutralization IC50 [µg/mL]
B1	> 1
B2	> 1
B3	> 1
B4	> 1
B5	> 1
